# From the supplement of paper PMC10338343
# ± gives the standard deviation. This is a selection; strong and weak results do not stand in their true shares.
# Tested on: MIWI (PIWIL1) piRISC loaded with piRNA #1 (30 nt)
# Assay: pre-steady-state target cleavage rate (min^-1); MIWI and MILI are mouse PIWI proteins and EfPiwi is from a freshwater sponge; tags in brackets are library labels; higher = faster piRNA-guided slicing of the target
# Details: guide: piRNA #1 5'p-UGAGGUAGUAGGUUGUAUAGUAUCCAGAGG; auxiliary factor: 500 nM mouse GTSF1
# Method in brief: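 The pre-steady-state cleavage rate was calculated from a burst-and-steady-state fit. Data came from Cleave-'n-Seq, in which […] transcribed, DNA-blocked target RNA library was mixed with 1 nM active affinity-purified piRISC carrying one synthetic guide, with or without 500 nM GTSF1 partner protein, in HEPES–potassium acetate buffer at 33 °C for 0–8 or 0–960 min. Uncleaved targets were sequenced and normalised to depth and to weakly complementary targets, three trials were pooled, and k3 was capped at 0.0001 min^-1.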
# 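Note: 1 nM active piRISC with 0.1 nM target library at 33 °C single turnover.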
row,Sequence,pre-steady-state target cleavage rate
1,GGACUGGAUACUUUUCAACCUACUACCUCA,1.19 ± 0.1
2,GCUCUGGAUACUAUACAACCUUCAACCUCA,0.321 ± 0.029
3,GUUCUGGAUACUAUACAACCUACUACCUCA,1.93 ± 0.11
4,GCUCUGGACUACUAUACAACCUACUACCUCA,1.45 ± 0.1
5,GCUCUGGAUACUAUACAACCUACUAGGAGA [g6:g29:cont:t1A],0.0532 ± 0.012
6,GGAGACCUAUCUAUUCAACCUACUAGCUCA,0.0859 ± 0.015
7,CCUCUGGAUACUAUACAACCAUCUACCUCA,0.0452 ± 0.0097
8,GGAGUGGAUACUAAACAACCUACUAGCUCA,0.108 ± 0.019
9,GGAGACGAUACUAUUCAACCUUCUACCUCA,0.561 ± 0.031
10,GGAGACCUAUGUAUACAACGUACUACGUCA,0.00269 ± 0.0026
11,GGACUGGAUACUGAUACAACCUACUACCUCA,1.59 ± 0.13
12,GCUCUGGAUACUAUACAACGUACAACCUCA,0.971 ± 0.086
13,GGACGUGGAUACUAUACAACCUACUACCUCA,1.85 ± 0.11
14,GGAGAGGAUACUAUACAACCUACAUCCUCA,0.108 ± 0.024
15,GCUGUGGAUACUAUACAACCUACUACCUGA,0.776 ± 0.18
16,GGAGACCUUACUAUACAAGCUACUACCUCA,0.888 ± 0.051
17,GGACUGGAUACAUACAACCUACUACCUCA,1.25 ± 0.13
18,GGAGUGGAUACUAUACAUGGUACUACCUCA,0.0286 ± 0.0046
19,GGAGACCUAUGAUAUGUUCCUUGUACCUCA,< 0.0001
20,CCACUGGAUACUAUACAACCUACUAGCUCA,1.25 ± 0.085

row,Sequence,pre-steady-state target cleavage rate
1,GCUCUGGAUACUAUUCAAGCUACUACCUCA,1.32 ± 0.071
2,GCUCUGGAUACUAUACAACCGACUACCUCA,0.0121 ± 0.0027
3,GCUCUGGAUACUAUACAACCUACCACCUCA,0.894 ± 0.074
4,GGAGACCUUACUAUACAUCCUACAACCUCA,0.424 ± 0.041
5,GGUCUGGAUACUAAACAACCUACUUCCUCA,0.0875 ± 0.022
6,CCUCUGGAUACUUUACAACCAACUACCUCA,0.134 ± 0.017
7,CCUCUGGAUAGUAUACUACCUACUACCUCA,0.115 ± 0.022
8,GGAGACGAUACUAUACCAACCUACUACCUCA,0.137 ± 0.03
9,CGUCUGGAUACUAUUCAACCUACUACCUCA,1.87 ± 0.09
10,GGAGUGGUAACUAUACAACCUACUACCUCA,1.2 ± 0.073
11,GGAGACCUAUGAUAACAACCUACUUGGAGA [g7:g16:cont:t1A],< 0.0001
12,GGAGACCUUACUAUACAACCUACUAACCUCA,1.25 ± 0.081
13,GGUCUGGAUACUAUACAACCAUCUACCUCA,0.0294 ± 0.0057
14,GGACUGGAUACUAUACAACCUUCUACCUGA,0.136 ± 0.038
15,GGAGAGGAUACUAUAGAACCUACUACCACA,0.211 ± 0.041
16,GGUCUGGAUACUAUACUACCUACUACCUGA,0.803 ± 0.12
17,GGAGUGCAUACUAUACAAGCUACUACCUCA,0.898 ± 0.04
18,GGAGACCUAUCUAUACAACCUACUAGCUGA,0.0288 ± 0.0089
19,GGAGACGAUACUAUACAACGUACAACCUCA,0.594 ± 0.063
20,GGAGACCAUACUAUACAACGUACUAGCUCA,0.125 ± 0.024
